Measured values: ChEMBL document CHEMBL5606458, “ASAP - ZIKV NS2B-NS3 protease fluorescence single point” (2024)
Hit rate of the full screen: of about 2,700 compounds, about 160 (5.9%) showed an effect of 50% or more. The list shows a part of the results.

Biological target: Nonstructural protein 3 (Zika virus) (UniProt A0A024AXB9)
[1] = PRVABC59, Concentration 50.0 uM, Number of replicates 1.0
[2] = PRVABC59, Concentration 10.0 uM, Number of replicates 1.0
[3] = PRVABC59, Concentration 15.0 uM, Number of replicates 1.0

Chain of UniProt A0A024AXB9 (A0A024AXB9 as listed by the source): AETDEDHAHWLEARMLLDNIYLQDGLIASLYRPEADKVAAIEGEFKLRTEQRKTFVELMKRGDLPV

SMILES: Cc1nc(Cl)c(NC(=O)C2CCN(c3ccc(C=O)cc3)CC2)c(Cl)n1
- inhibition [1]: 20.7%

SMILES: N#Cc1ccc(C[C@H](NC(=O)c2ccccc2)C(=O)NCCCCNC(=N)N)cc1
- inhibition (PRVABC59, Concentration 49.5 uM, Number of replicates 2.0, Standard deviation 0.37161761415873995 %): 1.32%
- inhibition (PRVABC59, Concentration 99.01 uM, Number of replicates 2.0, Standard deviation 0.413350327736166 %): 7.51%
- inhibition (PRVABC59, Concentration 198.0 uM, Number of replicates 2.0, Standard deviation 1.0731208032483701 %): 18.2%

SMILES: O=Cc1ccc(N2CCC(C(=O)Nc3cccc(C(F)(F)F)n3)CC2)cc1
- inhibition [1]: 23.3%

SMILES: O=Cc1ccc(N2CCC(C(=O)NCCc3csc(-c4ccncc4)n3)CC2)cc1
- inhibition [1]: 27.6%

SMILES: O=Cc1ccc(N2CCC(C(=O)NCc3ccc(Br)s3)CC2)cc1
- inhibition [2]: 22.4%

SMILES: N#Cc1cnn(-c2ccccn2)c1NC(=O)c1cc(Cl)ccc1NS(=O)(=O)c1ccc(Oc2ccccc2Cl)cc1
- inhibition [3]: 20.8%

SMILES: O=Cc1ccc(N2CCC(C(=O)N3CCN(c4ccccc4[N+](=O)[O-])CC3)CC2)cc1
- inhibition [1]: 30.4%

SMILES: Cc1cc(CO)c2cccc(CC(=O)Nc3cc(C)on3)c2n1
- inhibition (PRVABC59, Concentration 49.95 uM, Number of replicates 2.0, Standard deviation 1.089187856250299 %): 91.5%
- inhibition (PRVABC59, Concentration 99.9 uM, Number of replicates 2.0, Standard deviation 0.03053454880917251 %): 93.2%

SMILES: O=C(Nc1ccnc(Br)c1)c1cc(Cl)ccc1NS(=O)(=O)c1ccc(Oc2ccccc2Cl)cc1
- inhibition [3]: 24.9%

SMILES: O=C(NCc1ccc(Br)s1)c1cc(Cl)ccc1NS(=O)(=O)c1ccc(Oc2ccccc2Cl)cc1
- inhibition [3]: 29.3%

SMILES: CCOc1ccccc1CNC(=O)C1CCN(c2ccc(C=O)cc2)CC1
- inhibition [2]: 22.9%

SMILES: NS(=O)(=O)c1cscc1CNCc1nnc2ccccn12
- inhibition (PRVABC59, Concentration 49.5 uM, Number of replicates 2.0, Standard deviation 1.0558397524219334 %): -3.12%
- inhibition (PRVABC59, Concentration 99.01 uM, Number of replicates 2.0, Standard deviation 0.8489884990207718 %): -2.58%
- inhibition (PRVABC59, Concentration 198.0 uM, Number of replicates 2.0, Standard deviation 2.897713171950219 %): -0.956%

SMILES: COCCCN1CCN(C(=O)c2cc(Cl)ccc2NS(=O)(=O)c2ccc(Oc3ccccc3Cl)cc2)CC1
- inhibition [3]: 2.25%

SMILES: Cn1nc(-c2ccccc2)cc1CN1CCC(c2c[nH]c3cccnc23)CC1
- inhibition (PRVABC59, Concentration 49.5 uM, Number of replicates 2.0, Standard deviation 1.9137275585057805 %): -0.574%
- inhibition (PRVABC59, Concentration 99.01 uM, Number of replicates 2.0, Standard deviation 1.2887842040298862 %): 4.18%
- inhibition (PRVABC59, Concentration 198.0 uM, Number of replicates 2.0, Standard deviation 1.218769522108801 %): 4.99%

SMILES: O=C(N[C@H]1CCCN(c2cnccn2)C1)c1cc(Cl)ccc1NS(=O)(=O)c1ccc(Oc2ccccc2Cl)cc1
- inhibition [3]: 11.6%

SMILES: C[C@H]1CCCCN1CCCNC(=O)C1CCN(c2ccc(C=O)cc2)CC1
- inhibition [1]: 24.6%

SMILES: COc1cc2nc(Cl)nc(NC(=O)c3cc(Cl)ccc3NS(=O)(=O)c3ccc(Oc4ccccc4Cl)cc3)c2cc1OC
- inhibition [3]: 21.2%

SMILES: Cc1cn2nnc(C(=O)N3CCC[C@H](c4nc(=O)[nH][nH]4)C3)c2c(=O)[nH]1
- inhibition (PRVABC59, Concentration 49.5 uM, Number of replicates 2.0, Standard deviation 5.922516878130855 %): -5.04%
- inhibition (PRVABC59, Concentration 99.01 uM, Number of replicates 2.0, Standard deviation 6.562318743166875 %): -4.61%
- inhibition (PRVABC59, Concentration 198.0 uM, Number of replicates 2.0, Standard deviation 5.541728657645175 %): -4.73%

SMILES: CNC(=O)C[C@H]1CCCN1S(=O)(=O)c1ccc(Oc2ccccc2Cl)cc1
- inhibition (PRVABC59, Concentration 49.5 uM, Number of replicates 2.0, Standard deviation 2.9765876271904763 %): -0.51%
- inhibition (PRVABC59, Concentration 99.01 uM, Number of replicates 2.0, Standard deviation 1.3586951625567862 %): 1.57%
- inhibition (PRVABC59, Concentration 198.0 uM, Number of replicates 2.0, Standard deviation 0.698160185359443 %): 4.75%

SMILES: O=Cc1ccc(N2CCC(C(=O)N3Cc4ccccc4C[C@@H]3CO)CC2)cc1
- inhibition [1]: 23.9%

SMILES: COc1cccc([C@H](C)NC(=O)C2CCN(c3ccc(C=O)cc3)CC2)c1
- inhibition [2]: 23%

SMILES: O=Cc1ccc(N2CCC(C(=O)NCCc3ccc(OC(F)(F)F)cc3)CC2)cc1
- inhibition [1]: 23.3%

SMILES: Cn1cc(NC(=O)c2ccccc2C(F)(F)F)c(-c2cccc(CO)c2)n1
- inhibition (PRVABC59, Concentration 49.5 uM, Number of replicates 2.0, Standard deviation 2.1425827542838123 %): -2.4%
- inhibition (PRVABC59, Concentration 99.01 uM, Number of replicates 2.0, Standard deviation 3.2486075389443645 %): -2.61%
- inhibition (PRVABC59, Concentration 198.0 uM, Number of replicates 2.0, Standard deviation 3.617736613506203 %): -1.36%

SMILES: Cc1ncc(CO)c(CNC(=O)C2CCN(c3ccc(C=O)cc3)CC2)c1O
- inhibition [2]: -7.66%

SMILES: O=C(Nc1ccc(-n2cccn2)cc1)c1cc(Cl)ccc1NS(=O)(=O)c1ccc(Oc2ccccc2Cl)cc1
- inhibition [3]: 71.5%

SMILES: O=C(c1cc(Cl)ccc1NS(=O)(=O)c1ccc(Oc2ccccc2Cl)cc1)N1CCN(C(c2ccc(F)cc2)c2ccc(F)cc2)CC1
- inhibition [3]: 8.11%

SMILES: Cc1cc(CO)c2cccc(C[C@H](NC(=O)c3cc(C(F)F)nn3C)C(=O)O)c2n1
- inhibition (PRVABC59, Concentration 49.95 uM, Number of replicates 2.0, Standard deviation 2.764997803611235 %): -3.25%
- inhibition (PRVABC59, Concentration 99.9 uM, Number of replicates 2.0, Standard deviation 1.1240644155399124 %): 0.291%

SMILES: O=C(c1cccs1)N1CCCN(C(=O)c2cc(Cl)ccc2NS(=O)(=O)c2ccc(Oc3ccccc3Cl)cc2)CC1
- inhibition [3]: 6.67%

SMILES: O=C(c1cc(Cl)ccc1NS(=O)(=O)c1ccc(Oc2ccccc2Cl)cc1)N1CCN(C(=O)[C@@H]2CCCO2)CC1
- inhibition [3]: -3.32%

SMILES: O=C(NCc1ccc(Oc2ccccc2)cc1)c1cc(Cl)ccc1NS(=O)(=O)c1ccc(Oc2ccccc2Cl)cc1
- inhibition [3]: 12.9%

SMILES: O=C(c1cc(Cl)ccc1NS(=O)(=O)c1ccc(Oc2ccccc2Cl)cc1)N1CCN(c2ccc(Cl)c(Cl)c2)CC1
- inhibition [3]: 15.9%

SMILES: CC[C@H](NC(=O)c1cc(Cl)ccc1NS(=O)(=O)c1ccc(Oc2ccccc2Cl)cc1)c1cccc(C)n1
- inhibition [3]: 31.9%

SMILES: CCn1nnc(Cn2ncc(C3CCNCC3)c2C)n1
- inhibition (PRVABC59, Concentration 49.5 uM, Number of replicates 2.0, Standard deviation 2.1917246783635673 %): 1.66%
- inhibition (PRVABC59, Concentration 99.01 uM, Number of replicates 2.0, Standard deviation 3.860511564648231 %): 0.462%
- inhibition (PRVABC59, Concentration 198.0 uM, Number of replicates 2.0, Standard deviation 2.2045418247553137 %): 3.04%

SMILES: Cc1cc(Br)c(Cl)cc1NC(=O)c1cc(Cl)ccc1NS(=O)(=O)c1ccc(Oc2ccccc2Cl)cc1
- inhibition [3]: 28.4%

SMILES: CNC(=O)C[C@H]1CCCCN1S(=O)(=O)c1ccc(Oc2ccccc2Cl)cc1
- inhibition (PRVABC59, Concentration 49.5 uM, Number of replicates 2.0, Standard deviation 1.74797799606614 %): 0.447%
- inhibition (PRVABC59, Concentration 99.01 uM, Number of replicates 2.0, Standard deviation 2.4032055892179 %): 2.65%
- inhibition (PRVABC59, Concentration 198.0 uM, Number of replicates 2.0, Standard deviation 2.03120532382153 %): 5.58%

SMILES: CC(C)(C)[C@H](NC(=O)c1cc(Cl)ccc1NS(=O)(=O)c1ccc(Oc2ccccc2Cl)cc1)c1ccccc1
- inhibition [3]: 57.8%

SMILES: O=C(N[C@H](CO)CC1CCCCC1)c1cc(Cl)ccc1NS(=O)(=O)c1ccc(Oc2ccccc2Cl)cc1
- inhibition [3]: 40.7%

SMILES: CN(Cc1cccc([N+](=O)[O-])c1)C(=O)C1CCN(c2ccc(C=O)cc2)CC1
- inhibition [1]: 27.7%

SMILES: O=C(NCc1ccc(-c2cccs2)cc1)c1cc(Cl)ccc1NS(=O)(=O)c1ccc(Oc2ccccc2Cl)cc1
- inhibition [3]: 28.5%

SMILES: COc1ccccc1[C@H](C)NC(=O)C1CCN(c2ccc(C=O)cc2)CC1
- inhibition [2]: 25.4%

SMILES: CC(C)(CO)NC(=O)c1cc(Cl)cc(NC(=O)c2ccc(O)nc2)c1
- inhibition (PRVABC59, Concentration 49.5 uM, Number of replicates 2.0, Standard deviation 2.8459152851862095 %): -3.39%
- inhibition (PRVABC59, Concentration 99.01 uM, Number of replicates 2.0, Standard deviation 3.166668059513274 %): -5.46%
- inhibition (PRVABC59, Concentration 198.0 uM, Number of replicates 2.0, Standard deviation 2.455699952653552 %): -9.48%
